Where a name gives a salt, the structure may show the parent alone. This is one part of the list. Rule as the data show it: active = 0.5 or less and inactive = the rest. Many values rest on one well or one pass, so single values are uncertain.
Experiments:
Conditions in all cases: 50 µM; 24 h
[1] = test system: HeLa VPS33A reporter cells; assay: relative cell viability (CellMask signal) vs DMSO (fraction of DMSO); higher = less cytotoxic;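 also: primary screen of an FDA-approved drug library in HeLa reporter cells in 96-well format, CellMask signal normalized to DMSO-treated wells set as 1, under 0.5 deemed highly cytotoxic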
[2] = test system: HeLa VPS33A R498W KI + HA-SDC1-FLAG; assay: relative GAG core protein HA-SDC1 amount per cell number vs DMSO (fraction of DMSO); higher = more SDC1 (GAG core protein);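 also: HA-SDC1 level read out by In-Cell Western staining with an anti-HA antibody against the N-terminal tag, screening FDA-approved library drugs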
[3] = test system: HeLa VPS33A KO + NLuc-VPS33A R498W; assay: relative mutant VPS33A R498W amount (NanoLuc luminescence) vs DMSO (fraction of DMSO); HeLa model of a glycosaminoglycan (GAG) storage disease; KI is knock-in and KO knock-out; SDC1 is syndecan 1; higher = higher mutant VPS33A level;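 also: screen of an FDA-approved drug library, NanoLuc luminescence read after lysing the treated cells, taken as a measure of mutant VPS33A protein stability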

| Structure (SMILES) | relative cell viability [1] | relative GAG core protein HA-SDC1 amount per cell number [2] | relative mutant VPS33A R498W amount [3] |
| --- | --- | --- | --- |
| COc1ccc2cc3[n+](cc2c1OC)CCc1cc2c(cc1-3)OCO2 [Berberine hydrochloride] | 1.07 | inactive: 0.501 | 0.764 |
| CCCCC1OC(=O)c2ccccc21 (stereo not given) [3-n-Butylphathlide] | 0.909 | inactive: 0.63 | 0.677 |
| Nc1nc2[nH]cnc2c(=S)[nH]1 [Thioguanine] | 0.718 | inactive: 0.589 | 1.64 |
| CC(C)OC(=O)[C@H](C)N[P@](=O)(OC[C@H]1O[C@@H](n2ccc(=O)[nH]c2=O)[C@](C)(F)[C@@H]1O)Oc1ccccc1 | 1.1 | inactive: 1.62 | 1.37 |
| CN1CCN2c3ccccc3Cc3ccccc3C2C1 (stereo not given) [Mianserin HCl] | 0.553 | active: 0.491 | 0.797 |
| CC(C)(C)NC[C@H](O)COc1nsnc1N1CCOCC1 [Timolol Maleate] | 1.15 | inactive: 1.05 | 1.3 |
| CC(C)n1c(/C=C/C(O)CC(O)CC(=O)O)c(-c2ccc(F)cc2)c2ccccc21 (stereo not given) [Fluvastatin] | 0.73 | inactive: 0.695 | 3.19 |
| O=C(O)c1cn(C2CC2)c2cc(N3CCNCC3)c(F)cc2c1=O [Ciprofloxacin (hydrochloride)] | 0.961 | inactive: 0.766 | 1.08 |
| Cc1ccc(NC(=O)C2(c3ccc4c(c3)OC(F)(F)O4)CC2)nc1-c1cccc(C(=O)O)c1 | 1.34 | inactive: 1.39 | 1.62 |
| Nc1[nH]cnc2ncnc1-2 [Adenine HCl] | 0.853 | inactive: 1.09 | 1.76 |

— the supplement of paper PMC12355420
